# In US9872922B2, “Anti-EFNA4 antibody-drug conjugates” (PFIZER, INC., priority 2013, dated 2018):
# B1: huE22-AcBut-CM: huE22 conjugated via lysine residues to AcBut-N-acetyl-γ-calicheamicin dimethyl hydrazide (AcBut-CM) (conjugate)
# heavy: QVQLVQSGAEVKKPGASVKVSCKASGYTFTGYYIHWVRQAPGQGLEWMGWIYPGNFNTKYNERFKGRVTMTTDTSTSTAYMELRSLRSDDTAVYYCAREDGSPYYAMDYWGQGTSVTVSS[human IgG1 constant region omitted here]
# light: DIVMTQTPLSLSVTPGQPASISCRSSQSLVHSNGNTFLYWYLQKPGQSPQLLIYRVSNRFSGVPDRFSGSGSGTDFTLKISRVEAEDVGVYYCFQATHVPWTFGGGTKVEIKRTVAAPSVFIFPPSDEQLKSGTASVVCLLNNFYPREAKVQWKVDNALQSGNSQESVTEQDSKDSTYSLSSTLTLSKADYEKHKVYACEVTHQGLSSPVTKSFNRGEC
# Key:
# [1] = tested on: Breast-56 (BR56) TNBC PDX; test: In vivo efficacy, BR56 TNBC PDX; design: species or system NOD/SCID mice (human tumor PDX); settings: 0.27 mg/kg
# [2] = tested on: Ovarian-39 (OV39) ovarian cancer PDX; test: In vivo efficacy, OV39 ovarian cancer PDX; design: species or system NOD/SCID mice (human tumor PDX)
# [3] = tested on: BR13 tumor-initiating cells; test: Tumor-initiating cell (TIC) frequency by limit dilution analysis, BR13; assay type: in vivo, mice (human tumor PDX)
# Protocol: The day of harvest serial transplantation was chosen based on when tumors were starting to regress following huE22-AcBut-CM exposure. Tumors were dissociated and stained with anti-human ESA, anti-mouse CD45, and anti-mouse H2Kd antibodies. Three tumors per treatment group were pooled, and live human tumor cells (ESA+) were sorted by flow cytometry.
# Tumors in recipient mice were measured weekly and at 21 weeks post-injection, tumors that exceeded 200 mm^3 in recipient mice were scored as positive. Using Poisson distribution statistics, via L-Calc software (Stemcell Technologies, Vancouver, BC), injected cell doses of recipients with and without tumors at 21 weeks post-transplant were used to calculate the frequencies of TIC in each population.
# [4] = In vitro stability in mouse plasma (ELISA total ADC / total antibody); assay type: in vitro ADME; settings: 37° C.; for % total huE22 Ab remaining: Mouse plasma, mean; for % huE22-AcBut-CM remaining: mouse plasma, mean (n=3), total ADC by ELISA
# Protocol: Quantitation of the total ADC and total antibody, in plasma samples from pharmacokinetic studies in mice dosed with the ADC was determined using an enzyme-linked immunosorbent assay (ELISA) method. ELISA and liquid chromatography tandem mass spectrometry (LC-MS/MS) methods were also used to quantitate total ADC, total antibody and unconjugated payload from the exploratory toxicology studies in rat and monkey and in the in vitro plasma stability study with the ADC.
# Total antibody concentrations could not be determined for the total ADC incubations in human plasma due to ELISA limitations of detection for a human IgG, in human plasma containing human IgG. […] NC=Not calculated; SD=Standard deviation.
molecule,measurement,setting,value
B1,tumor volume ± SEM,[1]; Day 4,151 ± 14 mm^3
same,tumor volume ± SEM,[1]; Day 11,170 ± 21 mm^3
same,tumor volume ± SEM,[1]; Day 18,90 ± 10 mm^3
same,tumor volume ± SEM,[1]; Day 25,42 ± 13 mm^3
same,tumor volume ± SEM,[1]; Day 40,0 ± 0 mm^3
same,tumor volume ± SEM,[1]; Day 47,0 ± 0 mm^3
same,tumor volume ± SEM,[1]; Day 54,11 ± 8 mm^3
same,tumor volume ± SEM,[1]; Day 60,48 ± 17 mm^3
same,tumor volume ± SEM,[1]; Day 95,363 ± 100 mm^3
same,tumor volume ± SEM,[1]; Day 109,714 ± 198 mm^3
same,"Regression (TTP, Days)",[1]; BR56 PDX,Regression (60) Days
same,tumor volume ± SEM,[1]; Day 0,141 ± 12 mm^3
same,tumor volume ± SEM,[1]; Day 33,14 ± 4 mm^3
same,tumor volume ± SEM,[1]; Day 67,75 ± 29 mm^3
same,tumor volume ± SEM,[1]; Day 74,155 ± 51 mm^3
same,tumor volume ± SEM,[1]; Day 81,207 ± 56 mm^3
same,tumor volume ± SEM,[1]; Day 88,270 ± 78 mm^3
same,tumor volume ± SEM,[1]; Day 102,530 ± 143 mm^3
same,mean tumor volume,"[2]; 0.09 mg/kg, Day 0",173 ± 18
same,mean tumor volume,"[2]; 0.09 mg/kg, Day 7",355 ± 48
same,mean tumor volume,"[2]; 0.09 mg/kg, Day 14",554 ± 80
same,mean tumor volume,"[2]; 0.09 mg/kg, Day 17",609 ± 94
same,mean tumor volume,"[2]; 0.09 mg/kg, Day 21",628 ± 97
same,mean tumor volume,"[2]; 0.09 mg/kg, Day 24",614 ± 95
same,mean tumor volume,"[2]; 0.09 mg/kg, Day 28",779 ± 123
same,mean tumor volume,"[2]; 0.09 mg/kg, Day 35",934 ± 99
same,% TGI,"[2]; 0.09 mg/kg, OV39",45% TGI
same,mean tumor volume,"[2]; 0.27 mg/kg, Day 0",169 ± 21
same,mean tumor volume,"[2]; 0.27 mg/kg, Day 7",378 ± 56
same,mean tumor volume,"[2]; 0.27 mg/kg, Day 14",320 ± 73
same,mean tumor volume,"[2]; 0.27 mg/kg, Day 17",252 ± 62
same,mean tumor volume,"[2]; 0.27 mg/kg, Day 21",147 ± 28
same,mean tumor volume,"[2]; 0.27 mg/kg, Day 24",118 ± 28
same,mean tumor volume,"[2]; 0.27 mg/kg, Day 28",98 ± 25
same,mean tumor volume,"[2]; 0.27 mg/kg, Day 35",67 ± 18
same,mean tumor volume,"[2]; 0.27 mg/kg, Day 42",72 ± 23
same,mean tumor volume,"[2]; 0.27 mg/kg, Day 49",170 ± 96
same,mean tumor volume,"[2]; 0.27 mg/kg, Day 56",446 ± 337
same,mean tumor volume,"[2]; 0.27 mg/kg, Day 63",940 ± 675
same,mean tumor volume,"[2]; 0.27 mg/kg, Day 70",1194 ± 422
same,"Regression (TTP, Days)","[2]; 0.27 mg/kg, OV39",Regression (49) Days
same,# Animals with tumors,"[3]; 380 cells implanted per animal, 10 animals in group, 21 weeks post-injection",7
same,reduction of number of TIC vs control-AcBut-CM treated,[3]; p=0.0007,about 2.6 fold
same,TIC frequency (1 TIC in x cells),"[3]; tumors harvested day 21 post-initial treatment, scored 21 weeks post-injection",270 cells
same,% total huE22 Ab remaining,"[4]; 1 ug/mL, 0 hours",100%
same,% total huE22 Ab remaining,"[4]; 1 ug/mL, 8 hours",105%
same,% total huE22 Ab remaining,"[4]; 1 ug/mL, 24 hours",126%
same,% total huE22 Ab remaining,"[4]; 1 ug/mL, 48 hours",109%
same,% total huE22 Ab remaining,"[4]; 1 ug/mL, 72 hours",101%
same,% total huE22 Ab remaining,"[4]; 1 ug/mL, 168 hours",102%
same,% total huE22 Ab remaining,"[4]; 50 ug/mL, 0 hours",100%
same,% total huE22 Ab remaining,"[4]; 50 ug/mL, 8 hours",111%
same,% total huE22 Ab remaining,"[4]; 50 ug/mL, 24 hours",117%
same,% total huE22 Ab remaining,"[4]; 50 ug/mL, 48 hours",97.1%
same,% total huE22 Ab remaining,"[4]; 50 ug/mL, 72 hours",96.7%
same,% total huE22 Ab remaining,"[4]; 50 ug/mL, 168 hours",89.9%
same,% huE22-AcBut-CM remaining,"[4]; 1 ug/mL, 0 hours",100%
same,% huE22-AcBut-CM remaining,"[4]; 50 ug/mL, 0 hours",100%
